“And” between values parts separate entries of the source, which are not always exact repeats. Identical values can stand only once. In all, about 350,000 compounds went through this assay and about 700 (0.2%) were called active. Inconclusive results, whose numbers are uncertain, are shown with a selection of clear calls. Calls come from the whole dose curve; as a rule, active = well fitted inhibition curve with a large enough effect; inconclusive = small, poorly fitted or top-dose-only effect; inactive = flat fitted curve, though single readings scatter. No potency is given beside an inconclusive call; the fits are too rough.
target: RecQ-like DNA helicase BLM (Homo sapiens) (UniProt P54132); assay: qHTS Assay for Inhibitors of Bloom's syndrome helicase (BLM); conditions: recombinant BLM DNA unwinding, fluorescence dequenching; series mostly up to 56.1 µM; activity change, negative = inhibition: at the top concentration; note: nearly all actives have a fitted effect of over 35% in size;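 for activity change, negative = inhibition: plate controls were vehicle for no effect and no enzyme for full effect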
Potency is the fitted concentration of half-maximal effect; tags give direction and shape of the fitted curve.

UniProt P54132, sequence (P54132 whole entry, looked up): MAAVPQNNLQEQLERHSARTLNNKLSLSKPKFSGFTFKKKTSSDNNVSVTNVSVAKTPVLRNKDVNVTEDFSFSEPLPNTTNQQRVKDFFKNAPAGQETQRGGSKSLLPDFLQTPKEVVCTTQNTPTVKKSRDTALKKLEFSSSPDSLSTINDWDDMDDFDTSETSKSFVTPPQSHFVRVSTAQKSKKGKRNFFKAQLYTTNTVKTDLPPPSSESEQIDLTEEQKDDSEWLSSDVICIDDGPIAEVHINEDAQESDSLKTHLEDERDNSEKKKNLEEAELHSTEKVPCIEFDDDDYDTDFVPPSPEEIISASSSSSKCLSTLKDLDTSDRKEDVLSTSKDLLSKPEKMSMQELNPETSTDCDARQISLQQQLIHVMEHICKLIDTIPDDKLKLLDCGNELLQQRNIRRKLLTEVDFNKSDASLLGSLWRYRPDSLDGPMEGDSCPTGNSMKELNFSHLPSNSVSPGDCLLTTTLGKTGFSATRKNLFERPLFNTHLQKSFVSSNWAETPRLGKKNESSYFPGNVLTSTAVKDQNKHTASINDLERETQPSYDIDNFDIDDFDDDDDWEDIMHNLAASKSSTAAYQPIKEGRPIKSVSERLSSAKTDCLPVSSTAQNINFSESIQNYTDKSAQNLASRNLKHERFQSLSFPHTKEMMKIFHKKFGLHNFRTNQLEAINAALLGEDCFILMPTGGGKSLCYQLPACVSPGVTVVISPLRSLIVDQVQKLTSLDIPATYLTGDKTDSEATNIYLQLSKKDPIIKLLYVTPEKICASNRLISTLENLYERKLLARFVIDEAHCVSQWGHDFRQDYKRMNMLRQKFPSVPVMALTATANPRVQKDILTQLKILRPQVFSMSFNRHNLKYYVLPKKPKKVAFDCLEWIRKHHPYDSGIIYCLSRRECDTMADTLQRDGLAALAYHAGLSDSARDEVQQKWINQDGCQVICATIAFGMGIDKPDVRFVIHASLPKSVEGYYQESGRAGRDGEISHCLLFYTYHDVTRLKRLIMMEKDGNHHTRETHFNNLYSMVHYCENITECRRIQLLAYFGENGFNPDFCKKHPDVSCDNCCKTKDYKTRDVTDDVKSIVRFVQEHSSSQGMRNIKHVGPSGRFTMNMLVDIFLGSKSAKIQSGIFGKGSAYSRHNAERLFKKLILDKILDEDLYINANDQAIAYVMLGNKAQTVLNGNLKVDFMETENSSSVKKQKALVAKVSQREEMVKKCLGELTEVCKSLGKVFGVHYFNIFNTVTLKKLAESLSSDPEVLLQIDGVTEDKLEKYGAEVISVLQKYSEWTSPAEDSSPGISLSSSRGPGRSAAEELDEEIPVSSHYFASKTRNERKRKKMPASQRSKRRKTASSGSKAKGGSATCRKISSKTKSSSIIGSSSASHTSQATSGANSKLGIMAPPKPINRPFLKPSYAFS

Question: With `Nc1ccc(-c2nc3ccc(-c4nc5ccc(N)cc5[nH]4)cc3[nH]2)cc1` as the compound, how does the Potency read?
Answer: The Potency was active: 28.2 µM and active: 14.1 µM.

Question: With `O=[N+]([O-])c1ccc(N=Nc2ccc(O)cc2O)cc1` as the compound, how does the “activity change, negative = inhibition” value read?
Answer: The value was inactive: -7.29%.

Question: With `Oc1ccccc1CNc1cccc2cccnc12` as the compound, how does the Potency read?
Answer: Its Potency is inconclusive [inhibitor, single point].

Question: How did the Potency turn out when `COc1ccccc1Nc1nc(NCCCN(C)C)nc(N)c1[N+](=O)[O-]` was run?
Answer: The Potency was inconclusive [inhibitor, single point].

Question: Which Potency does the source give for `Oc1ccccc1Nc1nc(NCc2ccco2)c2ccccc2n1` here?
Answer: Its Potency is inconclusive [inhibitor, partial curve].

Question: For `CC(C)CC(=O)n1nc(-c2cccnc2)nc1NCc1ccc(F)cc1`, which “activity change, negative = inhibition” value is on record?
Answer: The value was inactive: -5.6%.

Question: Which “activity change, negative = inhibition” value does the source give for `Cc1ccc(-c2nc(-c3ccccc3)no2)c(Cl)c1` here?
Answer: Its value is inactive: -12.9%.

Question: `COc1ccc2nc3ccccc3nc2c1N` was tested. Which Potency did it give?
Answer: Its Potency is inconclusive [inhibitor, partial curve].

Question: How did the “activity change, negative = inhibition” value turn out when `COc1cc2ccc(=O)oc2c(O[C@@H]2O[C@H](CO)[C@@H](O)[C@H](O)[C@H]2O)c1O` was run?
Answer: Its value is inactive: 0.9%.

Question: `Cn1cnnc1SCC(=O)Nc1sc2c(c1C(N)=O)CCC2` was tested. Which Potency did it give?
Answer: The Potency was inconclusive [inhibitor, single point].

Question: For `CCC(C)C(NC(=O)C(Cc1ccc(O)cc1)NC(=O)C(N)C(C)C)C(=O)NC(Cc1cnc[nH]1)C(=O)N1CCCC1C(=O)NC(Cc1ccccc1)C(=O)O` (centres undefined), which “activity change, negative = inhibition” value is on record?
Answer: The value was inactive: -9.16%.

Question: How did the “activity change, negative = inhibition” value turn out when `CCCC(=O)Nc1ccc(NC(=O)c2ccccn2)cn1` was run?
Answer: Its value is inactive: 1.85%.

Question: `COc1cc(/C=C(\C#N)c2nc3ccccc3s2)cc([N+](=O)[O-])c1O` was tested. Which Potency did it give?
Answer: The Potency was inconclusive [inhibitor, single point].

Question: Which Potency does the source give for `COc1ccc(OC)c(NC(=O)c2nnn(CC(=O)Nc3ccc4c(c3)OCO4)c2N)c1` here?
Answer: The Potency was inconclusive [inhibitor, partial curve].

Question: How did the “activity change, negative = inhibition” value turn out when `CC(C)(O)c1cc(=O)sc2nc3ccccc3n12` was run?
Answer: The value was inactive: 2.73%.

Question: `CCC(=O)N1C2=C(c3ccccc3[C@@H]1CC(=O)Nc1ccc3ccccc3c1)[C@@H]1C(=O)N(c3ccccc3)C(=O)[C@@H]1[C@H](C)C2` was tested. Which activity change, negative = inhibition did it give?
Answer: Its activity change, negative = inhibition is inactive: 1.62% [at 12.4 µM].

Question: How did the Potency turn out when `O=C(c1coc(=O)c(Br)c1)N1CCCc2ccccc21` was run?
Answer: Its Potency is inconclusive [inhibitor, single point].

Question: For `Cc1oc(-c2ccc(F)cc2)cc1-c1nn2c(-c3ccoc3C)nnc2s1`, which Potency is on record?
Answer: The Potency was inconclusive [inhibitor, partial curve].

Question: Which Potency does the source give for `CCN(CC)S(=O)(=O)c1cccc(-c2n[nH]c(=S)n2/N=C/c2ccc(OC(F)F)cc2)c1` here?
Answer: Its Potency is inconclusive [inhibitor, single point].

From PubChem BioAssay AID2528 (National Center for Advancing Translational Sciences (NCATS), 2010)
